34 variants from the RNAGym collection of RNA variant scans (doi:10.1093/nar/gkz1192) can be followed below.

Read counts are not given, so values of variants with three or more changes are uncertain.

B1: CPEB3 Ribozyme (parent)
chain: UAACAGGGGGCCACAGCAGAAGCGUUCACGUCGCAGCCCCUGUCAGAUUCUGGUGAAUCUGCGAAUUCUGCUGUAUAUCUC

The series covers variants of B1. Kind of series: self-cleavage, relative activity (ratio to wild type); higher = more cleavage; in vitro, sequencing. The method, boiled down:
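Relative activity compares each variant's cleaved/total read fraction with that of the unmutated ribozyme. To get these fractions, barcoded CPEB3 ribozyme libraries from rounds of error-prone PCR were transcribed with T7 RNA polymerase for 5 hours at 37°C and then given 15 min of DNase I treatment before EDTA was added. The RNAs were reverse transcribed with template switching and sequenced on Illumina, and DNA sequencing linked barcodes to variants. A minimum of 5 reads applied, and three batches were averaged.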
With UAGCAGGAGGCCACAGCAGAAGCGUUCACGUCGCAGCCCCUGUCAGAUUCUGGUGGAUCUGCGAAUUCUGCUGUAUAUCUC [A3G G8A A56G], the self-cleavage was found to be 0.39.

For UAGCAGGUGGCCUCAGCAGAAGCGUUCACGUCGCAGCCCCAGUCAGAUCCUGGUGAAUCUGCGAAUUCUGCUGUAUUUCUC [A3G G8U A13U U41A U49C A77U], the self-cleavage is 0.34.

Regarding UAGCAGGGCGCCACAGCAGAGGCGUUCACGUCGCAGCCCCUGUCAGAUUCUGGUGAAUCUGCGGAUUCUGCUGCAUGUCUC [A3G G9C A21G A64G U74C A77G], the self-cleavage was determined as 0.12.

Turning to UAGCAGGGGGCCACAGCAUAAGCGUUCACGUCGCAGCCCCUGUCAGAUUCUGGUGAAUCUGCGAAUUCUGCUGUAUAUAUC [A3G G19U C79A], the self-cleavage was determined as 0.6.

Take UAGCAGGGGGCCACAGCAGAAGCGUUCACUUCGCAGCCCCUGACAGAUUCUGGAGAAACUGCGAAUUCUGCUGUAUAUCUC [A3G G30U U43A U54A U58A]: the self-cleavage was found to be 0.33.

As to UAGCAGGGGGCCACAGCACAAGCGUUCACGUAGCAGCCCCUGUCAGAUUCUGGUGCAUCUGCGAAUUCUGCUGCAUAUCUC [A3G G19C C32A A56C U74C], the self-cleavage turned out to be 0.07.

As to UAGCAGGGGGCCACAGCAGAAGCGUUCACGUCUCAGCCCCUGUCAGAUUCUGGUGAAUCUGCGAAUUCUGCUGUAUACCUC [A3G G33U U78C], the self-cleavage came to 0.1.

As to UAGCAGGGGGCCACAGCAGAAGCGCUCACGUCGCGGCCCCGGUCAGAUUCUGGUGAAUCUGCGAACUCUGCUGUAUAUCAC [A3G U25C A35G U41G U66C U80A], the self-cleavage stood at 0.58.

With UAGCAGGGGGCCACAGCAGAAGCGUUCACGUCGCAGCCCCUGUCAGAUUCUGGUAGAGCUGCGAAUUCUGCUGUAUAUCUC [A3G G55A A56G U58G], the self-cleavage came out at 0.21.

In the case of UAGCAGGUGGCCACAGCAGAAGCGUUCACGUCGCAGCCCCUGUCAGGUUCUGGUGAAUCUGCGGAUUCUGCUGUAUAUCCC [A3G G8U A47G A64G U80C], the self-cleavage was 0.06.

Regarding UAGCAGGGGGCCACAGCACAAGCGUUCACGUCGCGGCCCCUGUCAGAUUCUGGUGAAUCUGCGAAUCCCGCUGUAUAUCUC [A3G G19C A35G U67C U69C], the self-cleavage stood at 0.26.

Turning to UAGCAGGGGGCCACAGCAGAACCGUUCACGUCGCAGCCCCUGUCAGUUUAUGGUGAAUCUGCGGAUUCUGCUGUAUAUCUC [A3G G22C A47U C50A A64G], the self-cleavage came to 0.19.

Regarding UAGCAGGGGGCCACAGCAGAAGCGCUCACGUCGCGGCCCCUGUCAGAUUCUGGUGAAUCUGCGAAUUCUGCAGUAUAUCUC [A3G U25C A35G U72A], the self-cleavage was found to be 0.43.

For the variant UAGCAGGGGGCCACAGCAGAAGCGCUCACGUCGCAGCCCCUGUCAGAUUCUGGUGAGUCUGCGAAUUCUGCUGUAUAUCCC [A3G U25C A57G U80C], the self-cleavage turned out to be 0.11.

Regarding UAGCAGGGGGCCACAGCAGAAGCGUUCACAUCGCAGCCCCUGUCAGAUUCUGGUGAAUCUGCGAACUCUGCUGUAUAUCUC [A3G G30A U66C], the self-cleavage was determined as 0.24.

Take UAGCAGGGGGCCACAACAGAAGCGUUCACGACGCAGCCCCUGUCCGAUCCUGGCGAAUCUGCGAAUUCUGCUGUAUAUCUC [A3G G16A U31A A45C U49C U54C]: the self-cleavage was 0.02.

Take UAGCAGGGUGCCACAGCAGAAGCGUUCACGUCGCCGCCCCUGUCAGAUUCUGGUGAAUCUGCGAAUUCUGCUGUAUGUCUC [A3G G9U A35C A77G]: the self-cleavage is 0.37.

With UAGCAGGGGGCCACAACAGAAGCGUUCACGUCGCAGCCCCUGUCAGAUUCUGGUGUAUCCGCGUAUUCUGCCGUAUAUCUC [A3G G16A A56U U60C A64U U72C], the self-cleavage came out at 0.11.

With UAGCAGGGGACCACAGCAGAAGCGAUCGCGUCGCAGCCCCUGUCAGAUUCUGGUGAAUCUGCGAAUUCGGCUGUAUAACUC [A3G G10A U25A A28G U69G U78A], the self-cleavage was 0.

For the variant UAGCAGGGGGCCACAGCAGAAGCGCUCGCGUCGCAGCCCCUGUCAGAUUCUGGUGAAUCUGCGAAUUCUGCUGCAUAUCUC [A3G U25C A28G U74C], the self-cleavage is 0.72.

For the variant UAGCAGGGGGCCACAGCAGAAGCGUUCACGUCUCUGCCCCUGUCAGAUUCUGGUGAUUCUGCGAAUUCUGCUGUAUAUCUC [A3G G33U A35U A57U], the self-cleavage turned out to be 0.08.

UAGCAGGGGGCCACAGCAGAAGCGCUCACGUCGCAGACCCCGUCAGAUUCCGGUGAAUCUGCGAAUUCUGCUGUAUAUCUC [A3G U25C C37A U41C U51C]: the self-cleavage amounted to 0.4.

On to UAGCAGGGGGCCACAGCAGAAGCGCUCACGUCGCAGCACCUGUCAGAACCUGGUGAAUCUGCGAAUUCUGAUGUAUAUCUC [A3G U25C C38A U48A U49C C71A], for which the self-cleavage came to 0.35.

With UAGCAGGGGGCCACAGCAGAAGCGUUCACGUCACAGCCCCUGUCAGUUUCUGGUGAAUCUGCGAAUUCUGCUGUAUAUCUC [A3G G33A A47U], the self-cleavage is 0.38.

Consider UAGCAGGGUGCCACAGCAGAGGCGUCCACGACGCAGCCCCUGUCGGAUUCUGGUGAAUCUGCGAAUUCUACUGUAUAUCUC [A3G G9U A21G U26C U31A A45G G70A], for which the self-cleavage amounted to 0.06.

For the variant UAGCAGGGUGCCACAGCCGAAGCGUUCACGUCGCAGCCCCUGUCAGAUUCUGGUGAAUCUGCGAAUUCUGCUGUAUAUCUC [A3G G9U A18C], the self-cleavage came out at 0.05.

UAGCAGGGGGCCACAGCAGAAGCGUUCACGUCCCAGCCCCUGUCAGAUCCUGGUGAAUCUGCGAAUUCUGCUGUAUAUCUC [A3G G33C U49C]: the self-cleavage came out at 0.09.

On to UAGCAGGGGACCACAGCAGAAGCGUUCACGUCGCAGCCCCAGUCAGAUUCAGGUGAAUCUUCGAACCCUGCUGUAUAUCUC [A3G G10A U41A U51A G61U U66C U67C], for which the self-cleavage was determined as 0.06.

For UAGCAGGGUGCCACUGCAGAAGCGUUCGCGUCGCGGCCCCUGCCAGAUUCUGGUGAAUCGGCGAAUUCUGCUGUAUAUCUC [A3G G9U A15U A28G A35G U43C U60G], the self-cleavage was 0.05.

As to UAGCAGGGGACCACAGCAGAAGCGUUCACGUCGCGGCCCCUGUCAGAUCCUGGUGUAUCUGCGAUUUCUGCUGUAUAUCUC [A3G G10A A35G U49C A56U A65U], the self-cleavage is 0.17.

With UAGCAGGGGGCCACAGCAGAAGCGAUCACGUCGCAGCCCCUGUCAGAUUCUGGUGAAUCUGCGAAUUCUGCUGUAUAUCCC [A3G U25A U80C], the self-cleavage came to 0.54.

For the variant UAGCAGGGGACCACAGCGGAUGCGUUCACGUCGCAGCCCCUGUCAGACUCUGGUGAAUCUGCAGAUUCUGCUGUAUAUCUC [A3G G10A A18G A21U U48C G63A A64G], the self-cleavage was 0.04.

With UAGCAGGGGGCCACAGCAGAAGCAUUCACGGCGCAGCCCCUGUCAGAUUCUGGUGAAUCUGCGAAUUCCGCUGUACAUCUC [A3G G24A U31G U69C U76C], the self-cleavage is 0.08.

Take UAGCAGGUGGCGACAGCUGAAGCGUUCACGUCGCAGCCCCUGUCAGAUUCUGGAGAAUCUGUGAAUCCUGCUGUAUAUCUC [A3G G8U C12G A18U U54A C62U U67C]: the self-cleavage worked out at 0.05.
